From the supplement of paper PMC12217912
Some of the results follow. The full chains were built here from the parent and the listed change. Inactive controls read about 0.05.

B1: TEV protease; numbered along this chain (parent)
chain: MGESLFKGPRDYNPISSSICHLTNESDGHTTSLYGIGFGPFIITNKHLFRRNNGTLVVQSLHGVFKVKDTTTLQQHLVDGRDMIIIRMPKDFPPFPQKLKFREPQREERICLVTTNFQTKSMSSMVSDTSCTFPSGDGIFWKHWIQTKDGQCGSPLVSTRDGFIVGIHSASNFTNTNNYFTSVPKNFMELLTNQEAQQWVSGWRLNADSVLWGGHKVFMVKPEEPFQPVKEATQL

Variants of: B1
Assay: raw area under fraction-flipped curve 0-4 h after induction (AUC4h, not background-subtracted), DNA-recorder readout of cleavage of the substrate (dimensionless); higher = more cleavage of the substrate by the protease variant
Conditions: temperature: 34 °C; time window: 0-4 h after rhamnose induction
Method: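 In vivo DNA recorder in E. coli TOP10(DE3) ΔrhaA at 34 °C. Each TEVp single-site mutant (parent TEVp 0) is paired with a single-site variant of the 7-mer TEVs (canonical ENLYFQ|S). The substrate sits between flexible linkers in a Bxb1-sfGFP-TEVs-SsrA fusion, so cleavage stabilises Bxb1 and speeds flipping of a recombination array, read by NGS. The value is the raw area under the fraction-flipped curve over 0-4 h after rhamnose induction (AUC4h), with ≥20 reads per time point. It is not background-subtracted; inactive controls average about 0.047.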
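Further: Bxb1 expression induced with 0.2% (w/v) L-rhamnose at OD600 near 0.5, cultures sampled hourly, flipped fraction per protease–substrate barcode pair counted by paired-end Illumina sequencing.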

Variant	area with substrate ENLYAQS	area with substrate ENLYDQS	area with substrate ENLYEQS	area with substrate ENLYGQS	area with substrate ENLYHQS	area with substrate ENLYIQS	area with substrate ENLYMQS	area with substrate ENLYNQS	area with substrate ENLYRQS	area with substrate ENLYSQS	area with substrate ENLYTQS	area with substrate ENLYVQS	area with substrate ENLYYQS	area with substrate ENLYLQS	area with substrate ENLYPQS	area with substrate ENLYQQS	area with substrate ENLYWQS	area with substrate ENLYKQS	area with substrate ENLYCQS
D149F	0.0641	0.0649	0.064	0.0512	0.0702	0.0748	0.0691	0.0595	0.0631	0.0629	0.0509	0.0864	0.0428						
D149A	0.0742	0.0637			0.0573		0.0784	0.0637			0.0671		0.068	0.0808	0.0823	0.0581	0.0777		
S171R	0.0586		0.067	0.0718	0.0666	0.103	0.0733		0.0682			0.104	0.0602		0.063		0.0673		
S171N	0.0289			0.0535	0.0505	0.0613	0.054	0.0699			0.0579		0.0568	0.0753			0.0583		
G136I	0.0761		0.0625	0.0619			0.111	0.0698	0.0492		0.0904	0.0956							
G138I	0.084		0.0637	0.0555	0.071	0.111		0.0649							0.0667		0.0703	0.0551	
R109N	0.0484	0.0961			0.0732	0.0908		0.0722	0.0381	0.0692			0.0694		0.0542	0.0543	0.0709	0.0549	
V157K	0.0596	0.0032		0.053	0.0761		0.067			0.0645					0.0659		0.0339	0.0276	
V157H	0.0519	0.0366	0.0551	0.0434	0.0443	0.0771	0.0877	0.0513		0.0502		0.0541	0.0646	0.0471	0.0413	0.0583	0.025	0.0492	0.0494
S135T	0.0721		0.0781	0.0632	0.0603		0.0669	0.0633	0.0583			0.0959	0.0583	0.0712	0.055	0.0474	0.06	0.0628	
H143Y	0.0787	0.0674	0.076		0.053		0.108	0.067				0.154	0.0301	0.0959	0.0821		0.0865	0.0582	0.0942
H143S	0.0732		0.049	0.0629		0.0903		0.0494	0.0708	0.0803		0.0839	0.068	0.0748	0.0585	0.0601	0.0884	0.0687	0.0858
N178L	0.0777		0.0618			0.136	0.0961		0.0582						0.0741		0.112		
S127N	0.0716	0.0731	0.072		0.0651		0.111	0.0878	0.0606	0.0719			0.0775	0.132	0.0868		0.087	0.0684	
